± gives the standard deviation of the averaged measurements. The list shows a part of the results.
The sequences below were run on PfAP2-G AP2 domain (GST-tagged) (assay: gcPBM binding intensity (ln(normalized median fluorescence intensity)); higher = stronger DNA binding).
Outline: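 The binding buffer was 1× PBS containing 1% milk, 0.2 mg/ml BSA, 0.5% salmon testes DNA and 0.03% Triton X-100. In it, GST-tagged P. falciparum DNA-binding domains expressed in E. coli were applied for 1 h to an Agilent 4 × 180k array of primer-extended double-stranded 36-bp intergenic genomic probes plus negative controls. Binding intensity, read with Alexa488 anti-GST antibody and a 488 nm scan, is the highest Masliner-normalised natural-log median intensity across replicate spots of either probe orientation.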

Sequence	gcPBM binding intensity (ln)
GTATAAAAATTATATACACACAACAGAATTACATAT [CACACA_site133]	10.17 ± 0.057
GTTTATTGATTTATTTGTACTTATATATATATTTCA [XGTACX_site5098]	11.3 ± 0.67
AATATATACATACATACATGCATACATATATATAAC [TGCATGCA_site371]	10.1 ± 0.16
TTTAAATATATTCAATCACACACATTCGTTTTTTTT [CACACA_site7962]	9.77 ± 0.24
GAATATTAAACAAACACACACACATATATATATATA [CACACA_site3382]	10.1 ± 0.26
AGTAGTCTGGAGAAAAGTACACAGTATCTGGTAACC [XGTACX_site2035]	11.6 ± 1
TATAAATAGATATATACACACATTTTTAATGATAAA [CACACA_site7299]	9.85 ± 0.13
AAAAAAAAAAGACACACACACAATAGTATATAAATC [CACACA_site6579]	10.11 ± 0.057
AAAAAAAAAAAAAATACACACATATATATATATATA [CACACA_site85]	10.1 ± 0.42
CTTTTTCCTTTATATTGTACATAATTAAAGATAATA [XGTACX_site7014]	11.1 ± 0.7
TAAATTTATATATAGGTGCGCAATTTGATAATAGTT [GTGCAC_site9783]	10.3 ± 0.25
TTTTTATTTTTTCAAGTGCATATTTTTGGCTTCTTA	9.78 ± 0.11
TATATATATATATTACGTTTTAAATATACTAATCTT [CACACA_negctrl_site32]	9.87 ± 0.33
AATGTCATCATATTCATATATATTTATTTCTTTTTG [GTGCAC_negctrl_site500]	9.69 ± 0.23
TTTTTTTATAAATTCACACAAAATATAATATTAAAA [CACACA_site4766]	9.82 ± 0.11
CTATATATTTTTCATTGTACACAAATTAAAGAAAAA [XGTACX_site8385]	11.5 ± 1.1
ATATAATCCTTTCAAACACACAAAATATAATTAATA [CACACA_site1829]	9.945 ± 0.007
ATGATGGAATATTCTACACACAATTAATAAACAAAC [CACACA_site1045]	10.1 ± 0.13
TAAAAAAAAAAGTATACACACTTCTTAATGTCAACA [CACACA_site4818]	10.1 ± 0.13
TGTCCAATTTATTGTGCACACCTCAAAAGTGGGTAA [CACACA_site3826]	10.6 ± 0.37
GGTTATAACCCACATGCACACGTAAATAAATATTAT [CACACA_site5992]	10.3 ± 0.23
ATAAATAATAAGGTTACAACAAACACACAAAGGAAT [XGTACX_negctrl_site611]	10.22 ± 0.099

Sequence	gcPBM binding intensity (ln)
TAATAAATAAAAACATGTACATATATACATATATGT [XGTACX_site485]	11.4 ± 0.81
TACCTATATACATACACACACATATAACCAATGTAG [CACACA_site7096]	10.3 ± 0.18
AGAAGATTAAAAATTGCACACAAAAATATATTTTCT [CACACA_site8359]	10.03 ± 0.028
TTTCTATAATATATATGTACATATATAATATGTCGT [XGTACX_site3676]	11.2 ± 0.6
AGATAAAATAAATACACACACATAAATACGTACAAA [CACACA_site4739]	11.7 ± 0.74
TGATAATAAGCATACACACACACACTAAAAAAAAAA [CACACA_site6478]	10.3 ± 0.43
ATGATTATACAAAATATACACACGTGGACACAAATA [CACACA_site8304]	11.4 ± 0.66
GATATATAGGTATTTACACACAATGTGAGATCTATA [CACACA_site7575]	10.05 ± 0.092
AAAGACTTTTTATGAGCACACACATATATTATGGAG [CACACA_site8254]	10.16 ± 0.049
TTTTCAAAATGTTGTACACACAAAAAAAAAAAAAAA [CACACA_site1550]	11.5 ± 1
GATGATACACAGGTGTTGCACTTAAATGCAGTTCTT [GTGCAC_site9627]	10.17 ± 0.071
ATTAAAATAGAAAAAAAAAAAAAAAAAAAAAAAAAA [CACACA_negctrl_site1117]	9.51 ± 0.071
TATGGGGAACTATAATGTACGTATTCCTCATATATA [XGTACX_site338]	11.4 ± 0.95
TATTTTTTAAGTGAACATTTGTTATTATATTCTTAT [GTGCAC_negctrl_site172]	9.935 ± 0.007
TATATCTGTATCATTACACACATGTATACTTATTTG [CACACA_site6134]	10.3 ± 0.24
TTGATATACTATGACACATGCAAATAAAACATTATA [TGCATGCA_site535]	10.12 ± 0.099
TAATCATTTTTAAATTGTACAATTTATATAATAAGT [XGTACX_site6081]	10.8 ± 0.4
TTGTATTGTATATGCACACATAGAACACTTTTTTTT [CACACA_site4133]	10.2 ± 0.35
TAAATTTTGTTTAGCACACACACATACATACATACA [CACACA_site3155]	10.6 ± 0.26
ATATATAAATATATATGTACACACATATACATGTTG [XGTACX_site6653]	11.3 ± 0.66
AATTATTCTATATATTGTACATGTTTGTTTTTTTTT [XGTACX_site3130]	10.9 ± 0.42
TGTTTAATCACATGTTTGCACTTTCCTTTTGTAAAT [GTGCAC_site9893]	10.2 ± 0.11

Sequence	gcPBM binding intensity (ln)
TCTTAAAATCGGAAATGAAATAAAGTTTACAATATG [TGCATGCA_negctrl_site553]	9.87 ± 0.071
TGATTCTGTCATGGTGCACACCAGAACCATTATAAA [CACACA_site1965]	10.5 ± 0.46
AATGAACACCTAAAATGTACGTACAAATATATTTTA [XGTACX_site7067]	11.6 ± 0.88
AATCTGATCTTTTAAAGTACACAAAAAAAAAAAAAA [XGTACX_site115]	11.4 ± 1.1
AGGTTATAAATAAATACACACATACAAAAATATGAC [CACACA_site4773]	10.04 ± 0.064
AAAAAAAAAAAAAAAAGTACGTATCAAAGCATCAAA [XGTACX_site880]	11.3 ± 0.86
CATATATATATATGTACACACATTAATAAAAAAAAA [CACACA_site3230]	11.4 ± 0.86
GTTTAACTGTTTTATACACACAATGTATACAATAAA [CACACA_site2959]	10.2 ± 0.28
ATAACCTAATAATACACACACATGAATATATAGAAT [CACACA_site963]	9.905 ± 0.007
TTTAAAATTTTTTTTTTTTTTTTTTTTTTTTTTTAT [TGCATGCA_negctrl_site213]	9.24 ± 0.19
ATATAAATATGTTCTGCACACAAATAAGTGTTTGAA [CACACA_site9291]	10.1 ± 0.18
ATGTTTAATTTTTTTTTGTCCCTATAGAAGTGTCAA [CACACA_negctrl_site1103]	10.5 ± 0.35
AATGAATAAATAAACACACACACATATATAAATATG [CACACA_site6160]	10.05 ± 0.014
AAAACAAACAGACACACACACATATATATATATATA [CACACA_site3655]	10.2 ± 0.59
TTTGAGTGCACATACACACAGACATACATTTAAATA [CACACA_site3403]	10.6 ± 0.56
TATTTATTAATATGTACACACATCAACCATATTAAC [CACACA_site7001]	11.5 ± 0.93
TAATATATATTATTATGTACATATATTGATTCCTTG [XGTACX_site6830]	11.2 ± 0.65
TTGTTTTTATAAATATTATTACAATGAAAAAAAAAA [TGCATGCA_negctrl_site185]	9.82 ± 0.14
CCAAAATACATTAAACGTACATGTCCTAATAAGATA [XGTACX_site21]	11.3 ± 0.98
TTCTTATATATATACACACACAAAATATCTACAATG [CACACA_site736]	10.1 ± 0.16
ATATTATATTATATAACACACATTTTTCATAACACT [CACACA_site407]	10 ± 0.028
ATAATTTAATACTAGTGTACAGAAAAAAAAAAAAAA [XGTACX_site6756]	11.3 ± 1.1

Sequence	gcPBM binding intensity (ln)
TTAAATTAAAACAAATGTACAAAGTGCATATTTTTT [XGTACX_site8143]	10.5 ± 0.46
ATTTTTTTTTCTTTCGCACACGTGAAAGAATTTCTA [CACACA_site2052]	10.2 ± 0.22
TGAAGGTCAGTTCACAGTACCCAGTAACTCTACGGA [XGTACX_site2554]	10.8 ± 0.46
TATATTTTTTTAAAAAGTACTTTGTATATATATATA [XGTACX_site1300]	11.1 ± 0.83
TTGTTGTTATTTAAAACACACATCAATCATCTTAAC [CACACA_site1142]	10 ± 0.27
ACATATATATATAAATATATATATATATAAATATAT [CACACA_negctrl_site895]	9.425 ± 0.078
GTTGAACATAGATGCACACACATAAAATAAAAAAAA [CACACA_site5353]	10.2 ± 0.4
TGTTTAAATTTTTTGTTTTTTTTTTTATAAAGCAAA [TGCATGCA_negctrl_site313]	9.62 ± 0.099
TTACGCATACTAATTACACACAAATAGATGAATATA [CACACA_site1338]	10 ± 0.13
ATAAAAAAATAAATTAGTACATATATATATATATAT [XGTACX_site6971]	11.1 ± 0.83
AATTATTTTATGTGAGGTACACCACACATGAAGGGG [XGTACX_site8450]	11.5 ± 0.98
TAAATATATTCAATCACACACATTCGTTTTTTTTTT [CACACA_site234]	9.74 ± 0.17
AAAATTATAAATCTTGCACACAAAAAAAATAATAAA [CACACA_site8771]	9.93 ± 0.014
TTTTCATTTATGTATATATTTATTTTGATTTAATGT [GTGCAC_negctrl_site607]	9.69 ± 0.042
AAATATTCATAGTATACACACATTTATATATAATCA [CACACA_site771]	10.05 ± 0.078
TGAAAGTTCAATAATTGTACATGTGGAAATTCATAC [XGTACX_site1378]	10.9 ± 0.59
TATTGTTATGTCGTTATTAACTTTCTTTAATTAATT [CACACA_negctrl_site174]	10.1 ± 0.14
TTTTTTAAATAATATTGTACAAAAAATGTATAAATA [XGTACX_site3010]	11 ± 0.57
TTAGGTTTATACACTACACACATTATTCATAAAAAA [CACACA_site871]	10.2 ± 0.26
AAAAAACACAGACACACACACATATACATACATACA [CACACA_site2666]	10.4 ± 0.3
ATATTTCGTCTAAAAAGTACACAACAATAAAAAGTA [XGTACX_site6668]	11.6 ± 0.92
AAGTGTATACAGAAGAGTACAAACAATTTTTTTCTT [XGTACX_site7387]	11.3 ± 0.94

Reference: the supplement of paper PMC11417369
